Results taken from PubChem BioAssay (NCI).
Values joined by “and” are separate entries in the source; they are usually repeats but may differ in a detail not shown here. Identical values can stand only once.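 Five concentrations, 48 hours, 96-well plates. Here, GI50 denotes the concentration required for 50% inhibition of growth. The concentration for full growth arrest is given as TGI.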

Test system: NCI-H322M lung
Assay: NCI tumour cell line growth inhibition, 48 h

Row | SMILES | TGI | GI50
1 | NC(CCC(=O)O)C(=O)NC(Cc1ccc(N(CCCl)CCCl)cc1)C(=O)O (stereo not given) | > 100 µM | –
2 | Cc1cccc(C)c1NC(=O)C(=O)CC(=O)c1sc(Nc2c(C)cccc2C)nc1C | > 100 µM | –
3 | CN(C)CCCC1(c2ccc(F)cc2)OCc2cc(-c3csc4ccccc34)ccc21 (stereo not given) | 2.71 µM | 1.38 µM
4 | CC1(c2ccc(Cl)cc2)C=C(c2ccc(Cl)cc2)C(C#N)=C(C(C#N)C#N)N1 (stereo not given) | 29.7 µM | –
5 | Cc1ccc2c(=O)cc(-c3cc(C)sc3C)[nH]c2n1 | > 100 µM | –
6 | O=C(/C=C/c1ccccc1)CCN1CCCCC1 | > 100 µM | –
7 | O=S1(=O)C(=C(c2ccccc2)c2ccccc2)S(=O)(=O)c2ccccc21 | > 100 µM | –
8 | CCc1nc(N)nc(N)c1-c1ccc(N2CCOCC2)c(N=[N+]=[N-])c1 | > 100 µM | –
9 | Cc1cnc2[nH]c(-c3cccc4ccccc34)cc(=O)c2c1 | > 100 µM | –
10 | CN(CC(=O)Nc1ccccc1C(=O)O)c1ccccc1 | > 100 µM | –
11 | N/C(=N\N=C\c1nc2ccccc2o1)c1cnccn1 | > 100 µM | –
12 | CO/C(N)=C(\C#N)N=Cc1ccsc1 | > 100 µM | –
13 | CNS(=O)(=O)Nc1nccc(Cc2c(C)c3ccc(Oc4ncccn4)cc3oc2=O)c1F | > 100 µM | 0.16 µM and 0.857 µM
14 | CC(C)(C)OC(=O)/N=C/c1c(O)c2ccccc2oc1=O | > 100 µM | –
15 | CN(C)c1ccc(/C=N/N=C(\C#N)[S][Sn]([Cl])([c]2ccccc2)[c]2ccccc2)cc1 | 6.03 µM | 2.21 µM
16 | COc1ccc(NC(=S)c2ccc([N+](=O)[O-])o2)cc1 | 7.43 µM | –
17 | CCCCCC(=O)OC[n+]1cccc(-c2c(COC(=O)NC(C)C)c(COC(=O)NC(C)C)c3n2CCC3)c1 | > 100 µM | –
18 | CNS(=O)(=O)NNS(=O)(=O)c1ccc(C)cc1 | > 100 µM | –
19 | N#CC1(CCCCl)CCCCC1 | > 100 µM | –
20 | O=C(OC1OC2COC(=O)c3cc(O)c(O)c(O)c3-c3c(cc(O)c(O)c3O)C(=O)OC3C2OC(=O)[C@@]24CC(=O)[C@@](O)(OC25C(=O)O[C@H]2[C@@H](O)CO[C@@]25O)C2(O)Oc5c(O)c(O)cc(c5C24)C(=O)OC13)c1cc(O)c(O)c(O)c1 (stereo not given in full) | > 100 µM | –
21 | O=[N+]([O-])c1ccc(/C=C/c2ccc(/C=C/c3ccc([N+](=O)[O-])cc3[N+](=O)[O-])cc2)c([N+](=O)[O-])c1 | > 100 µM | –
22 | C=C(C)c1nc(Oc2ccccc2)nc(Oc2ccccc2)n1 | 31.2 µM | –
23 | O=C1CSC(c2cc3cc(Br)ccc3nc2Cl)N1c1ccc(Cl)cc1 (stereo not given) | > 100 µM | –
24 | Cc1ccccc1NC(=O)CC(=O)NNCC(=O)Nc1nnc(-c2ccccc2)s1 | > 100 µM | –
25 | NS(=O)(=O)c1c(O)c2ccccc2oc1=O | > 100 µM | –
26 | N#C[Se]CCN1C(=O)c2ccccc2C1=O | 6.05 µM | 2.07 µM

Row | SMILES | TGI | GI50
27 | CC(C)=CCC[C@@H](C)C1=C(N)C(O)=C(C)C(=O)C1=O | > 75 µM | –
28 | Nc1ccc2c(=S)c3ccccc3[nH]c2c1 | > 100 µM | –
29 | NS(=O)(=O)c1cc2c(cc1Cl)NCNS2(=O)=O | > 100 µM | –
30 | O=C(NO)c1ccc(CNc2cccc3nc(C4CC4)n(-c4ccccc4)c(=O)c23)cc1 | 15.1 µM | 2.84 µM
31 | O=c1c2cc(Br)ccc2nc(CNc2ccccc2)n1-c1ccccc1 | > 79.7 µM | –
32 | O=C(c1c(F)c(F)c(F)c(F)c1F)n1c(=S)n(C(=O)c2c(F)c(F)c(F)c(F)c2F)c2ccccc21 | > 100 µM | –
33 | CCN(CC)c1ccc(Cl)c2c1C(O)(C(C)C)C2(C)C (stereo not given) | 34 µM | –
34 | CN(C)CCNC(=O)c1cccc2c1nc(-c1cccnc1)c1ccccc12 | 20.6 µM | –
35 | COc1cc2c(Oc3ccc(-c4cnc(Nc5ccc(F)cc5)n(C)c4=O)cc3F)ccnc2cc1OCCCN1CCOCC1 | 4.36 µM | 1.53 µM
36 | O=C1NC(=NCc2cccs2)O/C1=C\c1ccc2ncccc2c1 | 13 µM | 3.47 µM
37 | O=C1c2ccccc2-c2c1c1c(O)cccc1n2Cc1ccccc1 | 25.3 µM | 6.63 µM
38 | Clc1ccc(C(OCn2ccnc2)c2nc3ccccc3[nH]2)c(Cl)c1 (stereo not given) | > 100 µM | –
39 | CCN(CC)/[N+]([O-])=N/OS(=O)(=O)N(C)C | > 100 µM | –
40 | O=C(CC1(O)C(=O)Nc2c(Cl)ccc(Cl)c21)c1ccc(Cl)cc1 (stereo not given) | > 100 µM | –
41 | O=c1c(Oc2ccc(F)cc2F)cc2cnc(NC3CCOCC3)nc2n1C1CC1 | > 25 µM | > 25 µM
42 | Cc1cc(C=O)c2c(=O)c3c(O)ccc(/C=C/C(C)C)c3oc2c1 | > 100 µM | –
43 | c1ccc(C(NC2=NCCO2)C2CC2)cc1 (stereo not given) | > 100 µM | –
44 | CCN(C(=O)N[C@@H](CC(C)C)C(=O)NCC(=O)OC)c1ccccc1 | > 100 µM | –
45 | C/C=C1/C=CC2c3[nH]c4ccccc4c3CCN2C1 (stereo not given) | > 400 µM | –
46 | C/C=C(/CCC1NCCc2c1[nH]c1ccccc21)[Si](C)(C)C (stereo not given) | > 100 µM and 17.5 µM | –
47 | CC1=C(C(=O)Nc2ccc3[nH]ncc3c2)C(c2ccc(F)cc2)N=C(c2ccc(C(F)(F)F)nc2)N1 (stereo not given) | > 25 µM | > 25 µM
48 | COC(=O)C1=C(OC)C(=P2(c3ccccc3)CC(c3ccccc3)=C2c2ccccc2)C(C(=O)OC)=C1C(=O)OC (stereo not given) | > 100 µM | –
49 | COC(=O)N/N=c1\cc(C(=O)Nc2ccc(C)c(C)c2)oc2cc(O)ccc12 | > 100 µM | –
50 | N#CCc1nc(-c2cc3ccccc3oc2=O)cs1 | > 100 µM | –
51 | O=[N+]([O-])c1ccc2c3c1[C@@H]1O[C@@H]1c1cccc(c1-3)[C@@H]1O[C@H]21 | 26.3 µM | –
52 | CCCCCNC(=O)CCCCCCCCCCCNC(=O)CCCCCCCCCCN1C=CC(=CC=C2C=CC(=O)C=C2)C=C1 | > 100 µM | –

Row | SMILES | TGI | GI50
53 | Cc1cccc(Oc2ccc(Nc3ncnc4ccc(NC(=O)CN(C)C)cc34)cc2Cl)c1 | 6.82 µM | 1.29 µM
54 | CN(/N=C/c1ccccn1)C1=NCCN1 | > 100 µM | –
55 | COc1cc2c3c(n(CCCN)c(=O)c2cc1OC)-c1ccc(N)cc1C3=O | 62.9 µM | 4.58 µM
56 | COC(=O)C1CC(=O)O[C@H]1c1ccc(OC)c(OC)c1 (stereo not given in full) | > 100 µM | –
57 | CS(=O)(=O)CCC1CCC(=O)O1 (stereo not given) | > 100 µM | –
58 | C=CCN(c1cc(O)c2c(c(C)cn2S(=O)(=O)c2ccccc2)c1[N+](=O)[O-])S(C)(=O)=O | > 100 µM | –
59 | CCC12C=C(C(=O)OC)N3c4ccccc4C4CCN(CCC1)C2C43 (stereo not given) | > 100 µM | –
60 | C/C(=C\c1csc(C)n1)[C@@H]1C[C@@H]2O[C@]2(C)CCC[C@H](C)[C@H](O)[C@@H](C)C(=O)C(C)(C)[C@@H](O)CC(=O)N1 | 0.000521 µM | 0.000312 µM
61 | O=C(Nc1ccc(Cl)cc1Cl)C1C(=O)OC2(CCCCC2)OC1=O | > 100 µM | –
62 | CN1S(=O)(=O)N(C)P12(N=P(CP(=NP13(N(C)S(=O)(=O)N1C)N(C)S(=O)(=O)N3C)(c1ccccc1)c1ccccc1)(c1ccccc1)c1ccccc1)N(C)S(=O)(=O)N2C | > 100 µM | –
63 | CCOC(=O)c1nc2ccc(C(F)(F)F)cc2nc1Oc1ccc(OC)cc1 | > 100 µM | –
64 | CC1(C)CC2=NO[Se]3=C2C(=NO3)C1 | 8.77 µM | –
65 | O=c1c2sc3ccccc3sc=2c(=O)c2c(Cl)c(Cl)c(Cl)c(Cl)c12 | > 100 µM | –
66 | COc1ccc(C(C)Nc2cc(OC)c(OC)c(OC)c2)cc1 (stereo not given) | 84.2 µM | –
67 | CCOc1ccc(OP2(=O)NC(=O)C=C(C)N2)cc1 (stereo not given) | > 100 µM | –
68 | CC(C)(C)n1c(=O)n2c(-c3ccccc3)c(-c3ccccc3)n2c1=O | > 100 µM | –
69 | O=[N+]([O-])c1ccc(N/N=C\c2cc(Br)ccc2O)nc1 | 6.05 µM | 1.09 µM
70 | CN(c1ccccc1)c1c2ccccc2nc2[nH]c3ccccc3c12 | 9.75 µM | 2.82 µM
71 | CN(C)c1ccc(/C=C2\CCc3ccccc3C2=O)cc1Br | > 100 µM | –
72 | Nc1cc(C(F)(F)F)c(-c2nc(N3CCOCC3)nc(N3CCOCC3)n2)cn1 | > 33.2 µM | 0.27 µM
73 | CC1=C(C(=O)NNC(=O)C[N+](C)(C)C)CC(C(=O)NNC(=O)C[N+](C)(C)C)=C(C)N1 | > 100 µM | –
74 | CCOc1ccc(NC(=O)C(=O)C(/C(=N/N)C(=O)OC)c2nc3ccc([N+](=O)[O-])cc3[nH]c2=O)cc1 (stereo not given) | > 100 µM | –
75 | Cc1nc2ccc(N=Nc3c(C)noc3C)cc2[nH]1 | > 100 µM | –
76 | CCOC(OCC)(OCC)C(Br)CC (stereo not given) | > 100 µM | –
77 | O=C(O)CCC(NC(=O)c1ccc(Nc2nc3ccc(C(F)(F)F)cc3nc2C(=O)O)cc1)C(=O)O (stereo not given) | > 100 µM | –
78 | COC(=O)c1ccc(CCC2=CC(=O)C=CC2=O)cc1 | 93.9 µM | –

Row | SMILES | TGI | GI50
79 | O=C(O)CSc1cc(NS(=O)(=O)c2ccc(Br)cc2)c2ccccc2c1O | 31.1 µM | 16.4 µM
80 | COC(=O)C1=C(O)C(C(=O)OC)[C@@]2(O)[C@@H](C(=O)OC)[C@H](C)C[C@@H]1[C@@H]2C(=O)OC (stereo not given in full) | > 100 µM | –
81 | COC(=O)C(=O)C(C(=O)C(=O)Nc1cccc(OC)c1)c1nc2ccc(Cl)cc2[nH]c1=O (stereo not given) | > 100 µM | –
82 | NCCCCNOCCCN | > 100 µM | –
83 | COc1cc(CCN)c(OC)c(OC)c1 | > 100 µM | –
84 | O=C1c2ccccc2C2(O)N(c3ccccc3)C(=S)N(c3ccccc3)C12O (stereo not given) | > 100 µM | –
85 | COc1cc2c(cc1C)NC(=O)/C2=C\c1ccc(Oc2ccccc2)cc1 | 40.3 µM | 15.1 µM
86 | CC(=O)Nc1nc2c(=O)c3ccccc3sc2s1 | > 100 µM | –
87 | Cc1nc2ccccc2n1Cc1nnc(-c2ccccc2)o1 | > 100 µM | –
88 | CCCCC(C(=O)C(=O)Nc1ccccc1CC)C(=O)C(C)C (stereo not given) | > 100 µM | –
89 | COc1cc2c(cc1OCCN1CCN(CCN3C(=O)c4cccc5cccc(c45)C3=O)CC1)N=C[C@@H]1CCCN1C2=O | 41.3 µM | 23.2 µM
90 | Cc1[nH]c(=O)c2oc3cc4ccccc4cc3c2c1C(=O)O | > 10 µM | –
91 | COC(=O)C(C)NP(=O)(OCc1cccc(Cn2cnc3c(N)ncnc32)c1)Oc1ccccc1 (stereo not given) | > 100 µM | > 100 µM
92 | CC1=N/C(=C\c2ccc(C)cc2)C(=O)O1 | > 100 µM | –
93 | CC(C)CCCC(C)C1CCC2C3CC([N+](=O)[O-])=C4CC(O)CCC4(C)C3CCC12C (stereo not given) | 40.7 µM | –
94 | O=C1/C(=C/c2ccc(Br)s2)NC(=S)N1CN1CCCCC1 | > 100 µM | –
95 | CCCCCCCCCCCCCCCCOP(=O)([O-])OCC[N+](C)(C)C1CC(C)(C)N(O)C(C)(C)C1 | > 100 µM | –
96 | COc1ccc(-c2c(Nc3ccccn3)nc3c(C4=CCCCC4)c(-c4ccccc4)[nH]n3c2=O)cc1 | > 100 µM | 2.9 µM
97 | N#Cc1c(CC(=O)O)cc(=O)n2c1[nH]c1ccccc12 | > 100 µM | –
98 | NC1=C(c2nc(-c3ccccc3)cs2)C(c2ccco2)c2c(c3ccccc3oc2=O)O1 (stereo not given) | > 100 µM | –
99 | COc1ccc(Cn2c(Br)c3c(c2-c2cc(OC)c(OC)c(OC)c2)CCc2sc(N)nc2-3)cc1 | > 100 µM | 4.87 µM
100 | COc1cc(Nc2cc(Cl)cc(Cl)c2)nc(N)n1 | 57.9 µM | –
101 | Oc1c(Br)cc(Cl)cc1C(c1cc(Cl)cc(Br)c1O)C(Cl)(Cl)Cl | 9.82 µM | 3.05 µM
102 | N/C(CCSCCSCC/C(N)=N\O)=N\O | > 100 µM | –
